Drawing on the antibiotic and cytotoxicity screens of Wong et al. (2023), this text covers cytotoxicity call and growth inhibition call for 28 compounds.

One assay relates to HSkMC. Nature of the assay: cytotoxicity call (relative viability < 0.9). Conditions: 10 µM.
The next assay concerns HepG2. Briefly: cytotoxicity call (relative viability < 0.9). The following applies: 10 µM.
A further assay deals with S. aureus RN4220. Nature of the assay: growth inhibition call (relative growth <= 0.2). The following applies: 50 µM.

The other results are listed elsewhere or left out.

For the compound `C[C@@H]1CN([C@@H](C)CO)C(=O)Cc2cc(NC(=O)Cc3cn(C)c4ccccc34)ccc2O[C@H]1CN(C)Cc1ccc(C(=O)Nc2ccccc2N)cc1`, the cytotoxicity call in the assay on HSkMC and in the assay on HepG2 was “inactive” throughout. The growth inhibition call with S. aureus RN4220 was “inactive”.

Regarding `CC(=O)OC(C)C[N+](C)(C)C.[Cl-]` (centres undefined), the cytotoxicity call in the assay on HSkMC was “inactive”. Further, the cytotoxicity call in the assay on HepG2 was “active”. Moreover, the growth inhibition call with S. aureus RN4220 was “inactive”.

Regarding `CCCCC(CC)COC(=O)C(C#N)=C(c1ccccc1)c1ccccc1` (centres undefined), the cytotoxicity call with HSkMC and in the assay on HepG2 was “inactive” each time. The growth inhibition call in the assay on S. aureus RN4220 was “inactive”.

Regarding `C[C@@H](NC=C1C(=O)OC(C)(C)OC1=O)C(=O)O`, the cytotoxicity call in the assay on HSkMC and in the assay with HepG2 was “inactive” throughout. The growth inhibition call with S. aureus RN4220 was “inactive”.

For the compound `C[C@@H]1CCCCO[C@@H](CN(C)C(=O)Nc2cccc3ccccc23)[C@@H](C)CN([C@H](C)CO)C(=O)c2cc(NS(=O)(=O)c3ccc(F)cc3)ccc2O1`, the cytotoxicity call with HSkMC and in the assay with HepG2 was “inactive” each time. In addition, in the assay with S. aureus RN4220, the growth inhibition call was “inactive”.

Regarding `C[C@@H]1CN([C@H](C)CO)C(=O)c2cc(C#CCN(C)C)cnc2O[C@H]1CN(C)Cc1ccc2c(c1)OCO2`, the cytotoxicity call in the assay with HSkMC and in the assay with HepG2 was “inactive” in each case. The growth inhibition call in the assay with S. aureus RN4220 is “inactive”.

`Cc1nn(C)c(C)c1Nc1nnc(N)[nH]1`: the cytotoxicity call with HSkMC and with HepG2 was “inactive” throughout. The growth inhibition call in the assay on S. aureus RN4220 was “inactive”.

For `C[C@@H]1CN([C@H](C)CO)C(=O)c2cc(N(C)C)ccc2O[C@@H](C)CCCCO[C@@H]1CN(C)CC1CCCCC1`, the cytotoxicity call in the assay on HSkMC and with HepG2 was “inactive” throughout. Moreover, the growth inhibition call with S. aureus RN4220 is “inactive”.

`OC[C@H]1O[C@@H](O)[C@H](O)[C@@H](O)[C@H]1O`: the cytotoxicity call in the assay with HSkMC and in the assay with HepG2 was “inactive” throughout. Also, the growth inhibition call in the assay on S. aureus RN4220 is “inactive”.

Consider `Cn1cnc(CCNC(=O)C[C@H]2CC[C@@H]3[C@H](COC[C@H](O)CN3C(=O)Nc3ccc(Cl)cc3)O2)c1`, for which the cytotoxicity call in the assay on HSkMC was “inactive”. In the assay with HepG2, the cytotoxicity call was “active”. In addition, the growth inhibition call in the assay with S. aureus RN4220 was “inactive”.

As for `COc1cccc(NC(=O)N[C@@H]2C=C[C@@H](CC(=O)N3CCOCC3)O[C@H]2CO)c1`, the cytotoxicity call with HSkMC and in the assay on HepG2 was “inactive” throughout. Further, in the assay on S. aureus RN4220, the growth inhibition call is “inactive”.

With `C[C@@H]1CCCCO[C@@H](CN(C)C(=O)c2ccccc2)[C@H](C)CN([C@@H](C)CO)C(=O)c2cc(NS(=O)(=O)c3ccc(F)cc3)ccc2O1`, the cytotoxicity call in the assay with HSkMC and with HepG2 was “inactive” throughout. Moreover, the growth inhibition call in the assay on S. aureus RN4220 is “inactive”.

For `C[C@@H]1CCCCO[C@H](CN(C)C(=O)Nc2ccccc2)[C@@H](C)CN([C@H](C)CO)C(=O)c2cc(NS(=O)(=O)c3cccs3)ccc2O1`, the cytotoxicity call in the assay with HSkMC and in the assay with HepG2 was “inactive” in each case. The growth inhibition call in the assay on S. aureus RN4220 was “inactive”.

As for `C/C(=N\N)c1ccc2ccccc2c1`, the cytotoxicity call in the assay with HSkMC and in the assay on HepG2 was “inactive” throughout. Further, in the assay with S. aureus RN4220, the growth inhibition call is “inactive”.

Consider `C[C@@H]1CCCCO[C@@H](CN(C)C(=O)Nc2ccc3c(c2)OCO3)[C@H](C)CN([C@@H](C)CO)C(=O)c2cc(NC(=O)Cc3ccccc3)ccc2O1`, for which the cytotoxicity call in the assay with HSkMC and in the assay with HepG2 was “inactive” each time. For the same compound, the growth inhibition call in the assay on S. aureus RN4220 is “inactive”.

Turning to `C[C@H](CO)N1C[C@H](C)[C@@H](CN(C)Cc2ccc3c(c2)OCO3)Oc2c(NC(=O)C3CC3)cccc2C1=O`, the cytotoxicity call in the assay with HSkMC and with HepG2 was “inactive” each time. Moreover, the growth inhibition call in the assay on S. aureus RN4220 was “inactive”.

As to `C[C@@H]1CN([C@@H](C)CO)C(=O)c2cccc(NC(=O)c3nc4ccccc4s3)c2O[C@@H]1CN(C)Cc1ccc(C(=O)Nc2ccccc2N)cc1`, the cytotoxicity call in the assay with HSkMC is “inactive”. The cytotoxicity call with HepG2 was “active”. Further, in the assay on S. aureus RN4220, the growth inhibition call is “inactive”.

Turning to `C[C@H]1O[C@H](O[C@H]2[C@H](O)[C@@H](O)[C@@H](O[C@H]3[C@H](O)[C@@H](O)[C@H](O)O[C@@H]3CO)O[C@@H]2CO)[C@H](O)[C@@H](O)[C@@H]1N[C@H]1C=C(CO)[C@@H](O)[C@H](O)[C@H]1O`, the cytotoxicity call with HSkMC and with HepG2 was “inactive” throughout. The growth inhibition call with S. aureus RN4220 was “inactive”.

For the compound `COCC(=O)Nc1ccc2c(c1)C(=O)N(C)C[C@@H](OC)[C@@H](C)CN(C(=O)Cc1ccccn1)[C@@H](C)CO2`, the cytotoxicity call with HSkMC and with HepG2 was “inactive” throughout. Besides, the growth inhibition call in the assay on S. aureus RN4220 was “inactive”.

For `C[C@H]1CN([C@@H](C)CO)C(=O)c2cc(NC(=O)Nc3ccc4c(c3)OCO4)ccc2O[C@H]1CN(C)Cc1ccc(Oc2ccccc2)cc1`, the cytotoxicity call in the assay on HSkMC and with HepG2 was “inactive” throughout. For the same compound, the growth inhibition call with S. aureus RN4220 was “inactive”.

On to `C[C@H](CO)N1C[C@H](C)[C@@H](CN(C)C(=O)Cc2ccccn2)Oc2ncc(-c3cccc(C(=O)N(C)C)c3)cc2C1=O`, for which the cytotoxicity call in the assay with HSkMC and in the assay with HepG2 was “inactive” in each case. The growth inhibition call in the assay on S. aureus RN4220 was “inactive”.

On to `Cc1noc(C)c1NC(=O)Nc1ccc2c(c1)CC(=O)N([C@H](C)CO)C[C@H](C)[C@@H](CN(C)Cc1ccc(-c3ccccc3)cc1)O2`, for which the cytotoxicity call in the assay on HSkMC and in the assay with HepG2 was “inactive” in each case. Besides, the growth inhibition call in the assay with S. aureus RN4220 is “inactive”.

Turning to `CC(=O)N[C@H](Cc1ccc2ccccc2c1)C(=O)N[C@H](Cc1ccc(Cl)cc1)C(=O)N[C@H](Cc1cccnc1)C(=O)N[C@@H](CO)C(=O)N(C)[C@@H](Cc1ccc(O)cc1)C(=O)N[C@H](CC(N)=O)C(=O)N[C@@H](CC(C)C)C(=O)N[C@@H](CCCCNC(C)C)C(=O)N1CCC[C@H]1C(=O)N[C@H](C)C(N)=O`, the cytotoxicity call with HSkMC and in the assay with HepG2 was “inactive” throughout. Also, the growth inhibition call with S. aureus RN4220 is “inactive”.

For the compound `Cc1noc(C)c1S(=O)(=O)N(C)C[C@@H]1Oc2ccc(NC(=O)Nc3ccccc3)cc2CC(=O)N([C@H](C)CO)C[C@H]1C`, the cytotoxicity call in the assay on HSkMC (human skeletal muscle cells) and in the assay on HepG2 was “inactive” in each case. Also, the growth inhibition call in the assay on S. aureus RN4220 was “inactive”.

As to `Cc1noc(C)c1CC(=O)N1CCCC[C@@H]1CCOc1cccc(CN(C)Cc2cccc3cccnc23)c1`, the cytotoxicity call in the assay with HSkMC and in the assay with HepG2 was “inactive” each time. The growth inhibition call with S. aureus RN4220 is “inactive”.

Take `NC1CCN(Cc2ccccc2)CC1`: the cytotoxicity call with HSkMC and in the assay on HepG2 was “inactive” in each case. Further, the growth inhibition call with S. aureus RN4220 is “inactive”.

On to `CCn1c(-n2nc(C)cc2C)nc2c1c(=O)n(CC(N)=O)c(=O)n2C`, for which the cytotoxicity call with HSkMC and in the assay on HepG2 was “inactive” throughout. Besides, the growth inhibition call in the assay with S. aureus RN4220 was “inactive”.

For the compound `O=C(C[C@@H]1C[C@H]2c3cc(NS(=O)(=O)c4ccccc4)ccc3O[C@H]2[C@H](CO)O1)NC1CCCCC1`, the cytotoxicity call in the assay with HSkMC and in the assay with HepG2 was “inactive” each time. Besides, in the assay on S. aureus RN4220, the growth inhibition call is “inactive”.
